In US20200270335A1:

Target: T1, human LRP6 on huLRP6-expressing BaF3 cells (human), O75581
T1 chain: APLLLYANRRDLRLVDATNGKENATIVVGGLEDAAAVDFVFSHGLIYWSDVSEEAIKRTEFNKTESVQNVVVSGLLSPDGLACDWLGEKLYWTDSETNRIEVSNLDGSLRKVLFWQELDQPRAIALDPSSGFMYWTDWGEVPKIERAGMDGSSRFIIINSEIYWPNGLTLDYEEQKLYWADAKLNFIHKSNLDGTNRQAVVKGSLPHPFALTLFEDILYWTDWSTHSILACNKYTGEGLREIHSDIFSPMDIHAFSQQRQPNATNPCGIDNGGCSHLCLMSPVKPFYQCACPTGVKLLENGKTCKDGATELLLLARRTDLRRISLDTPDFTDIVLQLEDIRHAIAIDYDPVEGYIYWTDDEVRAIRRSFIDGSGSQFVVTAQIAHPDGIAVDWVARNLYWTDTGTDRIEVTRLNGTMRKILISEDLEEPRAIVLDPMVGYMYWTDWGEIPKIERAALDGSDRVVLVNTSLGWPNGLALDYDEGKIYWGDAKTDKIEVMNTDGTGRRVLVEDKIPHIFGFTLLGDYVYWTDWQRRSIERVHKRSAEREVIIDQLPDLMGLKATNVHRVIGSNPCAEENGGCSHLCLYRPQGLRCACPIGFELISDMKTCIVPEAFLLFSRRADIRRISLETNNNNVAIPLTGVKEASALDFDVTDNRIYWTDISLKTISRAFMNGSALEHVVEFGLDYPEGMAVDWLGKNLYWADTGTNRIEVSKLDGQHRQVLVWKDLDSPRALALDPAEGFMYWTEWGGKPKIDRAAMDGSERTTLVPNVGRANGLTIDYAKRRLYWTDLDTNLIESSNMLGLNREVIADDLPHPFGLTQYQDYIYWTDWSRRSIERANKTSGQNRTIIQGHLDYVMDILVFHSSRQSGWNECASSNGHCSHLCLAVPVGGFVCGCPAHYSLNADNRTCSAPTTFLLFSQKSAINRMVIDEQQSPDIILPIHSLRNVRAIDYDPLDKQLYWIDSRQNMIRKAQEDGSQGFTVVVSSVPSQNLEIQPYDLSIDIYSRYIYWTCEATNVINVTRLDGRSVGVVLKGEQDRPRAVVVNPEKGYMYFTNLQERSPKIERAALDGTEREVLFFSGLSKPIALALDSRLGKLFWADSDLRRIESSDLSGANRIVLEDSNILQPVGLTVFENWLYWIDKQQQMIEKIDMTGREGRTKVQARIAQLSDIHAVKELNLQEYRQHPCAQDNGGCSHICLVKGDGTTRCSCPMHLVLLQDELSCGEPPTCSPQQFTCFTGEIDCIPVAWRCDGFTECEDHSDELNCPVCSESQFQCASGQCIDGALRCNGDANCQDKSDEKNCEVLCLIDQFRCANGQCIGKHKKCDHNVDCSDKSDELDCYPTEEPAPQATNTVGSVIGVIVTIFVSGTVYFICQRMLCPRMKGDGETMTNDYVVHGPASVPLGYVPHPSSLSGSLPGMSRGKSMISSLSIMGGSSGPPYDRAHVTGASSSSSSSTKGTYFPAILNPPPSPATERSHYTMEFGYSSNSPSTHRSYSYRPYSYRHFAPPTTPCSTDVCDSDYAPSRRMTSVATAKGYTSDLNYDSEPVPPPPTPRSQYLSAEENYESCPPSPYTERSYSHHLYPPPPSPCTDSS
Test: FACS competition on huLRP6-expressing BaF3 cells; free LRP6 detected with anti-LRP6 antibody YW211.31.57
Conditions: remark: other sources report otherwise

B1: ACE503 HSA-huDKK2 C2 K202E/K220E (ligand)
chain: [skipping about 600 residues]GSHIKGHEGDPCLRSSDCIEGFCCARHFWTEICKPVLHQGEVCTKQRKEGSHGLEIFQRCDCAKGLSCKVWKDATYSSKARLHVCQKI
- IC50: 100 µM
